Experimental data published in PubChem BioAssay AID488969 (Vanderbilt High Throughput Screening Facility, 2010).
Whole data set: some 110,000 compounds, median “z-score” near -0.1, cut for the highest 2% near 2. Some of the results follow. The source made the active and inactive calls.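 How the source made its calls: active means z-score in the third read window above 3 or below -3; inactive means the rest.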

Target: Metabotropic glutamate receptor 8 (Rattus norvegicus) (UniProt P70579)
Assay: mGluR8 Gi/Go-coupled signaling modulation – cell-based, rat, thallium flux, HTS, primary screen (AID 488969)
Details: HEK293 rat mGluR8, GIRK (G protein-gated inwardly rectifying potassium channel) thallium flux, FluoZin2; at 10 µM; stronger effect = higher value; submaximal glutamate (EC20) added with thallium

UniProt P70579, sequence (P70579 whole entry, looked up): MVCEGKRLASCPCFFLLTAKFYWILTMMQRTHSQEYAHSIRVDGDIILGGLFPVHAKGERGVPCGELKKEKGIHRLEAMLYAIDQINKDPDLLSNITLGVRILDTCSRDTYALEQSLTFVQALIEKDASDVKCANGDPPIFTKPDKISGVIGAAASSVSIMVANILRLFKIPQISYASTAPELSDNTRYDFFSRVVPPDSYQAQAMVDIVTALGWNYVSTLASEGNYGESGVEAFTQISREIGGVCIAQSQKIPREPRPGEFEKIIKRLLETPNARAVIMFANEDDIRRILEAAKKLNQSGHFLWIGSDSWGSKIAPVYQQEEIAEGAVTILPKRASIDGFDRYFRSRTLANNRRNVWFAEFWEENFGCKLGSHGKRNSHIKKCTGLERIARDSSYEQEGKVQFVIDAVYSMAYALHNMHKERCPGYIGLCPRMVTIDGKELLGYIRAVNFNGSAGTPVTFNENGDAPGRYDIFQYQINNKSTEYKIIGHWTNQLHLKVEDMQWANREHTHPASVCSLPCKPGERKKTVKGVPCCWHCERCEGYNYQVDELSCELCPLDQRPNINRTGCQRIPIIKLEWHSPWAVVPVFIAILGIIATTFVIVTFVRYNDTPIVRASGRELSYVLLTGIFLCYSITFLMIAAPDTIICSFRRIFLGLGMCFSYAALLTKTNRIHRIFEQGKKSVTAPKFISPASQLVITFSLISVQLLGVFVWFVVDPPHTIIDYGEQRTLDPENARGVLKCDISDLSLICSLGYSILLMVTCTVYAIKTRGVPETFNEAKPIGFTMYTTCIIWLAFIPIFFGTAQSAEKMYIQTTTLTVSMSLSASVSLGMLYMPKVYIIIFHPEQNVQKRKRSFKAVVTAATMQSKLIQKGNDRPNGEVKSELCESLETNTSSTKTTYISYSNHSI

Structure (SMILES)	z-score
COc1ccc(Br)cc1C1CC(=O)N2CN(C)CSC2=C1C#N (stereo not given)	-0.148
O=c1[nH]c(N/N=C/c2ccc(O)cc2)nc2ccccc12	-0.00334
C=CCNC(=O)C1CC(=O)N(c2ccc(OCC(=O)Nc3ccc(C)cc3)cc2)C1 (stereo not given)	0.104
O=C(O)/C=C/c1ccc2ccccc2n1	-0.432
Cc1cc(Cl)c(S(=O)(=O)NCC2CCCO2)cc1OCC(=O)NC1CCCCC1 (stereo not given)	-0.127
CCOc1ccc(-c2cc(N)n(S(=O)(=O)c3ccc(OC)c(OC)c3)n2)cc1	-0.0264
CCc1cc2c(=O)c(-c3cnn(-c4ccccc4)c3)c(C)oc2cc1OCC(=O)Nc1ccc(F)c(F)c1	0.0216
CCN(CC)c1ccc(NC(=O)c2cncc(Br)c2)cc1	-1.28
O=C(COC(=O)CSc1cc(Cl)ccc1Cl)NCc1ccc2c(c1)OCO2	-0.326
O=C1c2[nH]nc(-c3ccccc3O)c2C(c2cccc(Cl)c2)N1Cc1ccco1 (stereo not given)	-0.211
CCCCCOC(=O)c1ccc(N2C(=O)C3C4C=CC(C4)C3C2=O)cc1 (stereo not given)	0.103
CC(C)OCCCNC(=O)c1c(N)n(/N=C/c2cccs2)c2nc3ccccc3nc12	0.145
O=C(COc1cccc2cccnc12)N/N=C1\SCC(=O)N1Cc1ccco1	1.37
CCCOP(=O)(OCCC)C1(Nc2ccc(C)cc2)CCCCC1	0.139
Nc1ncnc(Nc2cc(Cl)cc(Cl)c2)c1[N+](=O)[O-]	-0.0016
O=c1c2c(nc3c(-c4ccc(Cl)cc4)c[nH]n13)CCCC2	active: 12
CC(=O)n1cc(/C=C2/N=C(c3ccccc3)OC2=O)c2ccccc21	0.0997
CCOC(=O)C1CCN(C(=O)c2cc3c(-c4ccc(OC)c(OC)c4)nn(C)c3s2)CC1	-1.22
CCC(=O)Nc1sc2c(c1C#N)CCCCC2	0.16
COc1ccc(CC(=O)NC2CC(C)(C)NC(C)(C)C2)cc1	-0.12
O=C1Nc2ccc(F)cc2C12Nc1ccccc1-c1nnc(SCc3ccccc3F)nc1O2 (stereo not given)	-0.338
Cc1n[nH]c(C)c1Cc1ccc(C(=O)O)cc1	0.431
Cc1ccc(OCC(=O)Nc2sc3c(c2C#N)CCC3)cc1	0.0233
Cc1cc(C(=O)Nc2ccc3c(c2)OCO3)cs1	0.0686
CSc1ccccc1C(=O)N1CCOCC1	-0.0127
CN(CC(=O)NCc1ccncc1)S(=O)(=O)c1ccccc1	-0.404
COc1ccc(-n2c(SCC(N)=O)nnc2-c2ccc(NS(=O)(=O)c3ccc(C)cc3)cc2)cc1	0.0143
CC(C)CCNC1=CC(=O)CC(c2ccccc2)C1 (stereo not given)	2.1

Structure (SMILES)	z-score
Cc1c(NC(=O)c2ccc(F)cc2)c(=O)n(-c2ccccc2)n1C	-0.16
COc1ccccc1C(=O)Oc1ccc(N2C(=O)CCC2=O)cc1	0.0926
Cc1c([N+](=O)[O-])c([N+](=O)[O-])nn1CC(=O)N1CCCCC1	-0.199
Cc1ccc(C2N3CC4([N+](=O)[O-])CN2CC([N+](=O)[O-])(C3)C4(C)C)cc1 (stereo not given)	0.0352
CC(NCc1ccco1)C(=O)N1CCc2ccccc2C1 (stereo not given)	0.108
CCN1CCN(S(=O)(=O)c2cc(OC)c(Cl)cc2OC)CC1	-0.0298
O=C(Cn1nc(C(F)(F)F)c2c1CCC2)NCc1ccc(Cl)cc1	-0.26
COc1ccc(C2C=C(C34CC5CC(CC(C5)C3)C4)NC(=S)N2)cc1OC (stereo not given)	-0.251
COC(=O)CC1(c2ccccc2)C(=O)c2ccccc2C1=O	-0.606
Cc1ccc(Sc2nnc(Cc3ccccc3)c3ccccc23)cc1	-0.421
Cc1nc(NCCc2ccc(S(N)(=O)=O)cc2)c2c(C)c(C)sc2n1	active: 6.05
Cn1c(=O)oc2cc(S(=O)(=O)N3CCCC(C(=O)Nc4ccc5c(c4)OCCO5)C3)ccc21 (stereo not given)	-0.546
CN(Cc1cnn(C)c1)C(=O)c1sc2cccc(Cl)c2c1Cl	-1.73
Cc1cc(-c2cccc([N+](=O)[O-])c2)nc2ccccc12	-0.424
O=C(COC(=O)c1n[nH]c(=O)c2ccccc12)c1ccc(Cl)cc1	0.374
CC(C)C[C@H](NC(=O)Nc1ccccc1F)C(=O)O	-0.103
CCOC(=O)Cc1csc(NC(=O)COc2ccccc2OC)n1	0.143
COc1ccc(OC)c(CNCCNC(=O)c2ccco2)c1	-0.131
Fc1cccc(NC(=S)NCCN2CCOCC2)c1	-0.326
CC(C)(C)n1nnnc1C(c1ccncc1)N1CCN(C2CCCCC2)CC1 (stereo not given)	-0.312
COc1ccc(C(=O)NC2CCCCCC2)cc1S(=O)(=O)Nc1ccc(Br)cc1	0.0178
C/C(=N/Nc1nc(C)cc(-c2ccccc2)n1)c1ccco1	0.158
O=C(CC1COc2ccccc2O1)NC1CCCCC1 (stereo not given)	0.48
COc1ccc(-c2nc3c(c(=O)[nH]c(=O)n3Cc3ccccc3)n2C)cc1	0.265
COc1ccc(S(=O)(=O)NCCSCc2cccc(C)c2)cc1Br	0.341
CC(C)Cc1ccc(/C(=N/O)C(=O)O)s1	0.0106
Nc1nc(SCC(=O)NC2CCCCC2)[nH]c(=O)c1-c1ccccc1	0.0888
